Consider 42 sequences from publication PMC7819943, “Rice protein-binding microarrays: a tool to detect cis-acting elements near promoter regions in rice”.

The other results are listed elsewhere or left out.

This test deals with T1, OsWOX13 (Oryza sativa, UniProt Q5QMM3 1-267).
T1 sequence: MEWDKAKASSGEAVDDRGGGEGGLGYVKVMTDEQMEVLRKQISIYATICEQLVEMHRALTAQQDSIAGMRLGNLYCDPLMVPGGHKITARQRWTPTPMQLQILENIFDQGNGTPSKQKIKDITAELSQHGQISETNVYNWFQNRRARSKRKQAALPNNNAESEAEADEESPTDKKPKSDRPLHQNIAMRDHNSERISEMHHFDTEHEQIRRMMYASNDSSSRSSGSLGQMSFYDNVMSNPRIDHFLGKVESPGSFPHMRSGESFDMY
Briefly: protein-binding microarray (RPBM); PBS, 2% BSA, 51.3 ng/ul salmon testes DNA, 50 uM zinc acetate, 200 nM TF, 25 C, 1 h; high values mean tight binding. To be noted: protein: recombinant; tags: N-terminal polyhistidine and DsRed monomer fusion (pET32a); label: CyDye5-dUTP incorporated in the synthesized complementary strand; 3' TTTTT single-stranded linker to array surface; dsDNA, one strand shown. The method, boiled down: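 Transcription factors were each fused at the N-terminus to a polyhistidine tag plus DsRed and expressed in E. coli BL21-CodonPlus before Ni–NTA purification. Binding to a double-stranded custom Agilent array was carried out with 200 nM protein at 25 °C for 1 h in PBS, 2% BSA, salmon testes DNA and 50 µM zinc acetate. The binding signal is per-feature fluorescence intensity, in arbitrary units, on an Axon 4000B scanner.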
For the sequence “TTACCTTTCAGTCAACCGACGAGATTGGGCGGTGGCGGCACGGAGTCACCTAGTGCAG”, the binding signal was 3410 fluorescence intensity (a.u.). “GAGATTCAATCACCACCTTAATGTTTCACAGCTACTCCCTCGGAGTCACCTAGTGCAG”: the binding signal was 18400 fluorescence intensity (a.u.). For “CTGCTTTTCATAGATTGAATGTTGCATACTGTATATGGGGCGGAGTCACCTAGTGCAG”, the binding signal was 8660 fluorescence intensity (a.u.). Next, “GTAATTAACTAATTTATTACAAATTGAAGAAATAATTGTACGGAGTCACCTAGTGCAG”: 23800 fluorescence intensity (a.u.); “TTTAATTACTAATCAATTTCATACATTCATATAGTTTATTCGGAGTCACCTAGTGCAG”: 55600 fluorescence intensity (a.u.); “AGCATCATCTAAATTGCATTTTGTATTCTTCCAAGTTACTCGGAGTCACCTAGTGCAG”: 3530 fluorescence intensity (a.u.). For “TCCAAATCATCCATAGTTAATTTAATAGGCAATTCATACACGGAGTCACCTAGTGCAG” the value was 8250 fluorescence intensity (a.u.); for “CTAAACTAATCAGGCGCCACGTCGGATGTGCTTACCACGTCGGAGTCACCTAGTGCAG”, 7520 fluorescence intensity (a.u.); for “GCAATTATTGGCCATTACTAGTTATGCAAGGTAGAAGTGTCGGAGTCACCTAGTGCAG”, 5660 fluorescence intensity (a.u.).

Take “TTATCAAATCAATAATTAAATATATTTTCATAATAAATTTCGGAGTCACCTAGTGCAG”: the binding signal was 4020 fluorescence intensity (a.u.). With “CGCTCGATTAGTGATTACCCGCTCAAACTCCCGCAACGTTCGGAGTCACCTAGTGCAG”, the binding signal was 15100 fluorescence intensity (a.u.). On to “ATATATTCAACACGTACGTTAATTTACGGTCAAACTTTGCCGGAGTCACCTAGTGCAG”, for which the binding signal was 3530 fluorescence intensity (a.u.). For the sequence “GTTAGAGATAATTGCAATTGTTATCACATGCCTTTCTAATCGGAGTCACCTAGTGCAG”, the binding signal was 13800 fluorescence intensity (a.u.). Take “CTCTTAATAATTAGGGACCAGTCCGCCGTATCGGCGTTTACGGAGTCACCTAGTGCAG”: the binding signal is 4030 fluorescence intensity (a.u.). Next, “TGTCTGCTACTGCTTTGATTGATAGTGGCAGCACCTCAACCGGAGTCACCTAGTGCAG”: 15300 fluorescence intensity (a.u.).

Turning to “GATATGAGTGACTAATTGACTTTGTGTTGATTTCGAGCAGCGGAGTCACCTAGTGCAG”, the binding signal is 34600 fluorescence intensity (a.u.). For “CGGAATATAATCTATCATTAGCTCTGCCATCCAATAATCCCGGAGTCACCTAGTGCAG” the value was 3910 fluorescence intensity (a.u.). As to “GTTAATTGATTAGCAAAAGGTACTATACATATATTCTTTTCGGAGTCACCTAGTGCAG”, the binding signal is 33800 fluorescence intensity (a.u.). In the case of “ATAGATTGAGTTGAGCCTGATCCCGTCTCTACTTTCTCCTCGGAGTCACCTAGTGCAG”, the binding signal was 34000 fluorescence intensity (a.u.). “AATGTGATGACTGGACTGCCATGTCAGCCAATATCACCTTCGGAGTCACCTAGTGCAG”: the binding signal was 9860 fluorescence intensity (a.u.). Next, “CAGATAGATGGATAGTACTACTACTAGTAGTAATACAAACCGGAGTCACCTAGTGCAG”: 5100 fluorescence intensity (a.u.); “TTACAAAACTAATTACATAAATGAAAGCTAATTCGGGAGGCGGAGTCACCTAGTGCAG”: 8650 fluorescence intensity (a.u.).

Consider “AGGTTGCAATCATTGGCCAGACGTTGCATGTCGTTGTTGACGGAGTCACCTAGTGCAG”, for which the binding signal is 13700 fluorescence intensity (a.u.). Next, “TCAGAATTGGAGAGAAATTAAACTGAGTTTTGGTGTTCCACGGAGTCACCTAGTGCAG”: 5000 fluorescence intensity (a.u.). Consider “ATCGTTGATTACCTACCAATTGATTATGGAAATAAATTAACGGAGTCACCTAGTGCAG”, for which the binding signal was 22900 fluorescence intensity (a.u.). For the sequence “AACCAATCAAACCCATCCACTTAGATCCAGAAAGTCAAATCGGAGTCACCTAGTGCAG”, the binding signal is 7920 fluorescence intensity (a.u.). Next, “TTATGACTATTTAAATTTAAATCATATCAACTTATATAAACGGAGTCACCTAGTGCAG”: 10700 fluorescence intensity (a.u.). Next, “CTCACCTACCGCATCTGTGTTCCTTTTGCTTTCTTTCTTTCGGAGTCACCTAGTGCAG”: 3220 fluorescence intensity (a.u.); “TATTTAATACTTCTAATTAGTATCAAACATCCGATATGACCGGAGTCACCTAGTGCAG”: 8000 fluorescence intensity (a.u.). Next, “ACTGATGAATGAAGCATGCGAGCAGCTGATCCGCCATTGCCGGAGTCACCTAGTGCAG”: 5330 fluorescence intensity (a.u.); “AATGATTTTATGTATATATGATTAAAGAAATGAGAAACATCGGAGTCACCTAGTGCAG”: 4960 fluorescence intensity (a.u.). Take “CATAAATTACATAGGCTCGTGGCAGTCTGCTGATCGATCGCGGAGTCACCTAGTGCAG”: the binding signal is 18300 fluorescence intensity (a.u.). Turning to “AATTTAGGGGATTGAATGTCCTGTTTCAAAGTTCAGGGTGCGGAGTCACCTAGTGCAG”, the binding signal was 4080 fluorescence intensity (a.u.). Next, “TATAGATAATTTGGAGTTAGTAGTTATGGTTGGCTATACTCGGAGTCACCTAGTGCAG”: 13400 fluorescence intensity (a.u.); “TATAATTATATTGGATATGCATGCATGCATTCATCTGACCCGGAGTCACCTAGTGCAG”: 30100 fluorescence intensity (a.u.); “TAATTGATTGTAGCTCGTTGAATTCCGGTTATTCCATTACCGGAGTCACCTAGTGCAG”: 34700 fluorescence intensity (a.u.). On to “ACATAATTAATATCTGGTCTCACCTCTCATACACACATGTCGGAGTCACCTAGTGCAG”, for which the binding signal was 23900 fluorescence intensity (a.u.). Next, “ATTTTAATTAGTTCAATACCGCGCCTTAATTGCCCTTCCACGGAGTCACCTAGTGCAG”: 33200 fluorescence intensity (a.u.); “TGCAGAACAGATTGAAGTTGAGTGGAACAGTAGTCAAGTACGGAGTCACCTAGTGCAG”: 8480 fluorescence intensity (a.u.); “ATAACAATTGATAAATTCACCAGTATATTATAGAAAGTGACGGAGTCACCTAGTGCAG”: 12200 fluorescence intensity (a.u.).

Regarding “AGCCACTGGAATTTTAGATTGGAAAAGAACACCGGTCCATCGGAGTCACCTAGTGCAG”, the binding signal is 4620 fluorescence intensity (a.u.). Next, “TATTTGTAATTTCAGTTGATATGACATATAAGTCCACTGTCGGAGTCACCTAGTGCAG”: 8290 fluorescence intensity (a.u.).
